Hit rate of the full screen: of about 52,000 compounds, about 1,700 (3.3%) were called active. Cut-off read from the data, not from the text of the source: active = survival mostly below about 52% (no sharp cut-off); inactive = mostly above about 56%. The list shows a part of the results.
What follows are compounds tested on Wild type (assay: growth inhibition of S. aureus wild type versus tarO mutant, primary screen, teichoic acid synthesis inhibitors, RN4220, OD600 (AID 463173)). Details: S. aureus RN4220 wild type/DeltatarO growth, OD600, 18 h, hits give low values, screened at 18.75 µg/mL (by protocol).

Row | SMILES | survival
1 | CCOC(=O)c1cc(S(=O)(=O)NCc2ccccc2)[nH]n1 | inactive: 136%
2 | CCC(CO)NC(=O)C(=O)Nc1c2c(nn1-c1ccc(F)cc1)CSC2 (configuration not stated) | inactive: 87%
3 | CN(C)c1nc(Cl)nc(NCCOc2ccccc2)n1 | inactive: 115%
4 | CCOC(=O)c1cnn(Cc2ccccc2)c1N | inactive: 104%
5 | Cc1cc(Nc2ccc(C)c(Cl)c2)n2nc(Cc3ccccc3)nc2n1 | inactive: 59%
6 | COc1ccccc1CNS(=O)(=O)c1c(C)nc2scc(C)n2c1=O | inactive: 79%
7 | CCN(c1ncnc2c1cnn2-c1ccc(C)cc1)C1CCCCC1 | inactive: 72%
8 | CCOc1ccc(NC(=O)CSc2nc(-c3ccc(OC)cc3)nc3c2Cc2c(CO)cnc(C)c2O3)cc1 | inactive: 87%
9 | COCCn1c(=O)[nH]c2cc(C(=O)NCc3ccccc3Cl)ccc2c1=O | inactive: 94%
10 | CCOc1ccc(NC(=O)c2c(Nc3ccc(OC)cc3OC)sc(C(=O)c3ccc(Cl)cc3)c2N)cc1 | inactive: 81%
11 | CCC(C)C(=O)NCc1ccc(C)cc1 (configuration not stated) | inactive: 105%
12 | CCOC(=O)c1cccc(NC(=O)c2cc3sccc3n2Cc2ccc(Cl)cc2)c1 | inactive: 135%
13 | CCOc1ccc(CCNC(=O)CCc2cn(Cc3ccccc3F)c3ccccc23)cc1OCC | inactive: 95%
14 | CC(=O)N1CCCc2cc(S(=O)(=O)N(C)CC(=O)Nc3cccc(Cl)c3C)ccc21 | inactive: 68%
15 | CCc1ccc(S(=O)(=O)NCCc2cn3ccsc3n2)cc1 | inactive: 71%
16 | Cn1c(=O)c2cc(S(=O)(=O)NC(Cc3ccccc3)C(=O)Nc3ccc(F)cc3)ccc2n(C)c1=O (configuration not stated) | inactive: 66%
17 | COC(=O)c1ccccc1NC(=S)N(Cc1ccco1)Cc1cc2cc(C)ccc2[nH]c1=O | inactive: 133%
18 | Cc1cccc(CNC(=O)c2cnc3c(-c4cccc(C)c4)c(C)nn3c2C)c1 | active: -1%
19 | CCCCC(=O)N1c2ccccc2C(C)(c2ccccc2)CC1(C)C (configuration not stated) | active: -2%

Row | SMILES | survival
20 | COc1ccc(OC)c(CCNc2ncnc3onc(-c4ccc(Cl)cc4)c23)c1 | inactive: 128%
21 | O=C(OCC(=O)c1cccs1)c1cccc(C(=O)OCC(=O)c2cccs2)n1 | inactive: 111%
22 | O=C(c1ccccc1Cl)n1nc(-c2ccco2)nc1NCc1cccs1 | inactive: 87%
23 | CCOC(=O)c1ccc(CN(Cc2ccc(F)cc2)S(=O)(=O)c2ccc(F)c(C(=O)Nc3cc(Cl)ccc3OC)c2)cc1 | inactive: 71%
24 | Cc1ccc(N2CCN(C(=O)c3c(C)oc4ncn(C)c(=O)c34)CC2)c(C)c1 | inactive: 84%
25 | C/C(=N\N=C1/NC(=O)C(CC(=O)O)S1)c1ccc(C)o1 (configuration not stated) | inactive: 117%
26 | CCN(CC)c1ccc(NC(=O)COCc2cc(-c3ccc4c(c3)OCO4)on2)c(C)c1 | inactive: 81%
27 | Cc1ccccc1Cn1c2ccccc2c2cnn(CC(=O)NCc3cccc(Cl)c3)c(=O)c21 | inactive: 79%
28 | Cc1ccc(NC(=O)CSc2nc3c(oc4ccccc43)c(=O)n2Cc2ccco2)cc1F | inactive: 71%
29 | Cc1nc(-n2nc(C)c(Cc3ccc(Cl)cc3)c2C)sc1C(=O)N1CCC(C)CC1 | inactive: 85%
30 | CC(N=Cc1cccc(O)c1O)c1ccccc1 (configuration not stated) | inactive: 126%
31 | CCOC(=O)CCc1nn(C)c(=O)c2ccccc12 | inactive: 111%
32 | CC(C)c1ccc(OCC(=O)Nc2ccc(S(=O)(=O)Nc3ncccn3)cc2)cc1 | inactive: 94%
33 | COc1ccc(CNC(=O)c2cc3c(=O)n(Cc4ccco4)ccc3nc2C)c(OC)c1 | inactive: 93%
34 | CC(=O)N1CCCc2cc(S(=O)(=O)N(C)CC(=O)Nc3ccc(C(C)C)cc3)ccc21 | inactive: 74%
35 | Cn1cc(-c2cc3n(n2)CCC(=O)N3CCCC(=O)Nc2ccc(Cl)cc2)c2ccccc21 | inactive: 80%
36 | O=C1CC(c2ccccc2)Sc2ccccc2N1Cc1ccccc1F (configuration not stated) | inactive: 96%
37 | CC(C)OC(=O)c1c(NC(=O)c2cccc(C(F)(F)F)c2)sc2c1CCCC2 | inactive: 77%
38 | O=C1Nc2nc(=O)nc3[nH]c(=O)nc(n23)N1 | inactive: 94%

Row | SMILES | survival
39 | COc1cccc(CNC(=O)c2sc3nc[nH]c(=O)c3c2C)c1 | inactive: 76%
40 | COc1ccc(CNC(=O)CCC2N=C3c4ccccc4N=C(SCC(=O)NCCc4ccc(OC)c(OC)c4)N3C2=O)cc1 (configuration not stated) | inactive: 69%
41 | COc1ccc(NC(=O)Cn2ccn(-c3ccc(F)c(F)c3)c(=O)c2=O)cc1Cl | inactive: 83%
42 | COc1cccc(N2CCN(C(=O)c3cnc4c(-c5ccc(F)cc5)c(C)nn4c3C)CC2)c1 | active: -6%
43 | COc1ccc(C(=O)Oc2c(Sc3ccccc3)c(C)nn2-c2ccccc2)c(OC)c1 | inactive: 108%
44 | COc1ccc(C)c2sc(NC(=O)c3ccc(S(=O)(=O)N4CCOCC4)cc3)nc12 | inactive: 79%
45 | COc1ccccc1CNC(=O)C(=O)NCC(c1ccco1)S(=O)(=O)c1ccc(F)cc1 (configuration not stated) | inactive: 83%
46 | Cc1c(C(C)(C)C)sc(=N)n1C | inactive: 86%
47 | Cc1cccc(C)c1OCCn1c(CCNC(=O)C2CCCCC2)nc2ccccc21 | inactive: 65%
48 | CCOc1ccc(NC(=O)c2cc(-c3ccc(C)c(F)c3)on2)c([N+](=O)[O-])c1 | inactive: 85%
49 | C=CCn1c(=O)c(C2=NS(=O)(=O)c3ccccc3N2)c(O)c2ccccc21 | inactive: 96%
50 | COC(=O)c1ccccc1NS(=O)(=O)c1cc2c3c(c1)CC(=O)N3CCC2 | inactive: 64%
51 | CC1=NN(c2ccc(S(N)(=O)=O)cc2)C(=O)C1 | inactive: 113%
52 | CC(C)(C)c1ccc(C(=O)NCC(c2ccco2)S(=O)(=O)c2ccccc2)cc1 (configuration not stated) | inactive: 70%
53 | O=C(Cn1c(=O)sc2ccccc21)Nc1ccc(O)cc1 | inactive: 103%
54 | CCN(CC)S(=O)(=O)c1ccc2c(c1)N(CC(=O)Nc1ccc(Cl)cc1)C(=O)C1CCCN21 (configuration not stated) | inactive: 82%
55 | COc1cccc(C(=O)Nc2nc(-c3nnn(-c4ccccc4C(F)(F)F)c3C)ns2)c1 | inactive: 76%
56 | CCOc1ccc2nc(N(Cc3cccnc3)C(=O)c3cccs3)sc2c1 | inactive: 68%
57 | COc1cccc(-c2nc(Cn3c(=O)cc(C)c4c(C)nn(-c5ccccc5)c43)c(C)o2)c1OC | inactive: 74%

Source: PubChem BioAssay AID463173 (ICCB-Longwood Screening Facility, Harvard Medical School, 2010)
